From PubChem BioAssay (Tox21)
The inconclusive results got no clear call from the source; some entries with a clear call stand among them for comparison. For some assays here: Where the call is inconclusive, the potency comes from a doubtful curve fit. The source made the active and inactive calls. Unless noted, calls follow the shape of the dose curve; as a rule, active = well fitted curve in the direction sought with a large enough effect in the repeat runs; inconclusive = weak or mixed curves; inactive = no such curve, though single readings can be large; an effect the other way counts as inactive or inconclusive.

Columns and labels:
[1] = molecular target: Progesterone receptor (Homo sapiens) (UniProt P06401); test: qHTS assay to identify small molecule antagonists of the progesterone receptor (PR) signaling pathway (AID 1346795; active = well fitted inhibition curve with a large enough effect in the signal ratio in the repeat runs, not every such curve was filed as active; inconclusive = weak or mixed curves; the % refers to the signal ratio; also: potency is read from the fitted curve at half-maximal effect; as to activity change, negative = inhibition: % is scaled to controls: 0 for no effect and ±100 for the full control effect); conditions: PR-UAS-bla HEK293T, beta-lactamase FRET ratio, 16 h; activity change, negative = inhibition: at 92.4 µM (top of the series) unless noted
Chain of UniProt P06401 (P06401 whole entry, looked up): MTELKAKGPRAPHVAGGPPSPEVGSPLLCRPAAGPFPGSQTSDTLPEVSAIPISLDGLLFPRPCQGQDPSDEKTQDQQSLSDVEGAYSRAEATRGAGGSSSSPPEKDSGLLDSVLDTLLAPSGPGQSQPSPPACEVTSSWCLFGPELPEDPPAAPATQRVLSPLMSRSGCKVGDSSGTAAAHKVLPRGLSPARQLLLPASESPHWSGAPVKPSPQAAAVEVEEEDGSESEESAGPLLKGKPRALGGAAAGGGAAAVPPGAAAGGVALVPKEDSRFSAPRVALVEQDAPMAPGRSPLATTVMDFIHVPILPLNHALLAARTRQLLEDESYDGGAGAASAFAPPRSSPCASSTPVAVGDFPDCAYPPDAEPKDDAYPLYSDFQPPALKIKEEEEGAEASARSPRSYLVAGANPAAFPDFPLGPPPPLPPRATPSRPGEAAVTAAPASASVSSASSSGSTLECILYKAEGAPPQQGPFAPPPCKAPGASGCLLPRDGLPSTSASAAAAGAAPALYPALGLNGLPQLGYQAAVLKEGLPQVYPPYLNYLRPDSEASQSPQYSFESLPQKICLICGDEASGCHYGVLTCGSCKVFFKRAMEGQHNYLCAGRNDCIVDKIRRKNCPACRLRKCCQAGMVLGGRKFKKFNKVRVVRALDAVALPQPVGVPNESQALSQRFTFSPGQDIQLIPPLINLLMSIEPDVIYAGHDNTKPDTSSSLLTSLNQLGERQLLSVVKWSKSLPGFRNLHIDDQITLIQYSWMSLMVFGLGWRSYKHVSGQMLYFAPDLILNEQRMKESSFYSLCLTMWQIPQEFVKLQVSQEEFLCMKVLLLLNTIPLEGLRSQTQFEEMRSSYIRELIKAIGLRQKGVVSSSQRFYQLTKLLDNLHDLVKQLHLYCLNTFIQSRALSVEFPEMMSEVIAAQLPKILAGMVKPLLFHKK
Procedure, shortened: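 PR-UAS-bla HEK293T cells with beta-lactamase reporter under UAS control, in 2% charcoal-stripped FBS, treated with compounds plus 1 nM promegestone (R5020, final) for 16 hr at 37C. Read-out: FRET beta-lactamase substrate fluorescence after 2 hr at room temperature.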

[2] = qHTS assay to identify small molecule antagonists of the progesterone receptor (PR) signaling pathway - cell viability counter screen (AID 1346798); also: nearly all actives have a fitted effect of over 50% in size; also: potency is read from the fitted curve at half-maximal effect; as to activity change, negative = cytotoxicity: % is scaled to controls: 0 for no effect and ±100 for the full control effect
Procedure, shortened: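 PR-UAS-bla HEK293T cells, 3,000/well in 2% charcoal-stripped FBS medium, dosed with compounds plus R5020 agonist and incubated 16 h at 37C. Viability then measured in the same wells by CellTiter-Glo luminescence after 30 min at RT.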

[3] = qHTS assay to identify small molecule agonists of the progesterone receptor (PR) signaling pathway - cell viability counter screen (AID 1346799; calls by dose curve; also: nearly all actives have a fitted effect of over 45% in size; also: potency is read from the fitted curve at half-maximal effect; as to activity change, negative = cytotoxicity: % is scaled to controls: 0 for no effect and ±100 for the full control effect)
Procedure, shortened: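 Counter screen in the PR-UAS-bla HEK293T wells (2% charcoal-stripped FBS, 16 h compound exposure at 37 C) after the bla read. CellTiter-Glo added, 30 min at room temperature, luminescence read as cell viability.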

[4] = qHTS assay to identify small molecule antagonists of the TGF-beta/Smad signaling pathway - cell viability counter screen (AID 1346824); also: potency is read from the fitted curve at half-maximal effect; nearly all actives have a fitted effect of over 50% in size
Procedure, shortened: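 SBE-bla HEK 293T cells were plated overnight at 37 C, then given compounds in DMSO plus TGF-beta1 (added as 0.25 ng/mL solution) for 5 hr. After the bla read, CellTiter-Glo was added to the same wells and luminescence read after 30 min at room temperature.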

[5] = Caspase-3/7 induction in HepG2 cells by small molecules, qHTS cell viability counter screen (AID 1346981); also: potency is read from the fitted curve at half-maximal effect; nearly all actives have a fitted effect of over 30% in size
Procedure, shortened: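 Viability determined by CellTiter-Fluor fluorescence in HepG2 wells also used for the luminescent Caspase-Glo 3/7 read. Compounds were present for 16 hr at 37 C, 5% CO2 before reagent addition.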

[6] = qHTS assay to identify small molecule agonists of the TGF-beta/Smad signaling pathway (AID 1346859; active = well fitted activation curve with a large enough effect in the signal ratio in the repeat runs, not every such curve was filed as active; inconclusive = weak or mixed curves; the % refers to the signal ratio; also: potency is read from the fitted curve at half-maximal effect); conditions: SBE-bla HEK293T, TGF-beta/Smad beta-lactamase reporter, 5 h; activation: at 76.8 µM (top of the series)
Procedure, shortened: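 SBE-bla HEK293T cells plated overnight, then compound exposure for 5 h at 37 C. Beta-lactamase reporter read with LiveBLAzer B/G FRET substrate after 2 h at room temperature, fluorescence at 405 nm excitation, 460/530 nm emission.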

[7] = qHTS assay to identify small molecule antagonists of the TGF-beta/Smad signaling pathway (AID 1346924; active = well fitted inhibition curve with a large enough effect in the signal ratio in the repeat runs, not every such curve was filed as active; inconclusive = weak or mixed curves; the % refers to the signal ratio; also: potency is read from the fitted curve at half-maximal effect); conditions: SBE-bla HEK293T, TGF-beta/Smad reporter, beta-lactamase ratio; activity, negative = inhibition: at 76.8 µM (top of the series) unless noted
Procedure, shortened: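 SBE-bla HEK 293T cells were plated overnight, then received compound in DMSO plus TGF-beta1 (added as a 0.25 ng/mL solution) and were incubated 5 h at 37 C. Beta-lactamase reporter activity was read after 2 h at room temperature with LiveBLAzer B/G FRET substrate (ex 405, em 460/530 nm).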

[8] = Caspase-3/7 induction in CHO-K1 cells by small molecules, qHTS assay (AID 1346980); also: potency is read from the fitted curve at half-maximal effect; nearly all actives have a fitted effect of over 15% in size
Procedure, shortened: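 Wild-type cells were seeded at 1,500 per well and settled 5 hr at 37 C, 5% CO2, then exposed to DMSO-dissolved compounds for 17 hr. Caspase-Glo 3/7 reagent was added, and luminescence was read after 30min at room temperature.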

[9] = molecular target: Nuclear receptor subfamily 1 group I member 2 (Homo sapiens) (UniProt O75469); test: Human pregnane X receptor (PXR) small molecule agonists, qHTS assay (AID 1346982); also: potency is read from the fitted curve at half-maximal effect; nearly all actives have a fitted effect of over 35% in size
Chain of UniProt O75469 (O75469 whole entry, looked up): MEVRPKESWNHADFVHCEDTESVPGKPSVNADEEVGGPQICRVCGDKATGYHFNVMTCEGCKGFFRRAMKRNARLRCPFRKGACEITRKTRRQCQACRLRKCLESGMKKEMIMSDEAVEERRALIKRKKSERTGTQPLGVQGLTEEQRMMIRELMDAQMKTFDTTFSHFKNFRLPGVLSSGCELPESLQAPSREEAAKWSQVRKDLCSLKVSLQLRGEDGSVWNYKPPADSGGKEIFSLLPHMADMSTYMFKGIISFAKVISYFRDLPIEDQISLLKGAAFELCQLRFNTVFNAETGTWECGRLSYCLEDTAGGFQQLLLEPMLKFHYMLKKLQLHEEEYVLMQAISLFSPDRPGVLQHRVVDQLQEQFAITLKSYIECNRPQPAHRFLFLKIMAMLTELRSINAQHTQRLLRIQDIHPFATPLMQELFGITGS
Procedure, shortened: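 Compound-induced hPXR transactivation of a CYP3A4 luciferase reporter was scored in HepG2 PXR-Luc cells over 24 hr at 37 C, 5% CO2, by luminescence.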

[10] = molecular target: Thyrotropin-releasing hormone receptor (Homo sapiens) (UniProt P34981); test: qHTS assay to identify small molecule agonists of the thyrotropin-releasing hormone receptor (TRHR) signaling pathway (AID 1346891; calls by dose curve; also: % is scaled to controls: 0 for no effect and ±100 for the full control effect)
Chain of UniProt P34981 (P34981 whole entry, looked up): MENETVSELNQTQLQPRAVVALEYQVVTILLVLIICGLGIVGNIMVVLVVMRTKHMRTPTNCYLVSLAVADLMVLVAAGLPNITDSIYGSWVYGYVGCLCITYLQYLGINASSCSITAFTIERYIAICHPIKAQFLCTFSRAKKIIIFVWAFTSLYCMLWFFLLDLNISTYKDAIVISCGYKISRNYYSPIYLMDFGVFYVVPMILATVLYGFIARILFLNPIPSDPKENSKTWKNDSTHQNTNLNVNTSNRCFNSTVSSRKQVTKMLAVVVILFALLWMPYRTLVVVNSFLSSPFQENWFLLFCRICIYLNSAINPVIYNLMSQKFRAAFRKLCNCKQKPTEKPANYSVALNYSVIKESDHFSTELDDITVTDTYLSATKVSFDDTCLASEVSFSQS
Procedure, shortened: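 HEK293 cells expressing TRHR plated 18 h at 37 C/5% CO2, calcium dye-loaded 2 h at 37 C, then compound added (agonist mode); kinetic calcium fluorescence read 3 min at 1 s intervals; 15 concentrations in triplicate.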

[11] = Human pregnane X receptor (PXR) small molecule agonists, qHTS cell viability counter screen (AID 1346977); also: nearly all actives have a fitted effect of over 50% in size; also: potency is read from the fitted curve at half-maximal effect
Procedure, shortened: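 PXR-Luc HepG2 cells (2,000/well, 5% charcoal-stripped FBS) preincubated 5 hr, then exposed to compounds 24 hr at 37 C. Viability read in the same wells by CellTiter-Fluor fluorescence, reagent added at 23 hr, 1 hr incubation.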

[12] = molecular target: Cytochrome P450 2D6 (Homo sapiens) (UniProt P10635); test: Cytochrome P450 Family 2 Subfamily D Member 6 (CYP2D6) small molecule antagonists: luciferase reporter qHTS assay (AID 1671196); also: potency is read from the fitted curve at half-maximal effect; nearly all actives have a fitted effect of over 50% in size
Chain of UniProt P10635 (P10635 whole entry, looked up): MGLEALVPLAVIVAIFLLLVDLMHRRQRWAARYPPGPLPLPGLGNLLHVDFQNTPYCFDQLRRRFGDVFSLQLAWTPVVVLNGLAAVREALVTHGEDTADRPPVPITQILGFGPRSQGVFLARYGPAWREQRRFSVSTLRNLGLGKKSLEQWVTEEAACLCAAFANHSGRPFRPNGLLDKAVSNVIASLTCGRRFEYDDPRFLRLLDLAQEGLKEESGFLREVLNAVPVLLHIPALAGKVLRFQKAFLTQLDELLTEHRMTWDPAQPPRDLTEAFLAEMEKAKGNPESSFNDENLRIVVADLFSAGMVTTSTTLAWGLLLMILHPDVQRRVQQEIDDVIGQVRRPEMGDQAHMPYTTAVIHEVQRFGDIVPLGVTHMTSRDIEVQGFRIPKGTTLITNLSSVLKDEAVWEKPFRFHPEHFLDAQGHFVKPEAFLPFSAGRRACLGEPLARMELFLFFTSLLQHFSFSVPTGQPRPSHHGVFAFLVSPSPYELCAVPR
Procedure, shortened: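 Each well received CYP2D6 with its proluciferin substrate and chemical, sat 10 min, then got NADPH regeneration solution for 1 h at room temperature. Luminescence in RLU served as the activity measure.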

[13] = molecular target: Cytochrome P450 2C19 (Homo sapiens) (UniProt P33261); test: Cytochrome P450 Family 2 Subfamily C Member 19 (CYP2C19) small molecule antagonists: luciferase reporter qHTS assay (AID 1671197); also: nearly all actives have a fitted effect of over 65% in size; also: potency is read from the fitted curve at half-maximal effect
Chain of UniProt P33261 (P33261 whole entry, looked up): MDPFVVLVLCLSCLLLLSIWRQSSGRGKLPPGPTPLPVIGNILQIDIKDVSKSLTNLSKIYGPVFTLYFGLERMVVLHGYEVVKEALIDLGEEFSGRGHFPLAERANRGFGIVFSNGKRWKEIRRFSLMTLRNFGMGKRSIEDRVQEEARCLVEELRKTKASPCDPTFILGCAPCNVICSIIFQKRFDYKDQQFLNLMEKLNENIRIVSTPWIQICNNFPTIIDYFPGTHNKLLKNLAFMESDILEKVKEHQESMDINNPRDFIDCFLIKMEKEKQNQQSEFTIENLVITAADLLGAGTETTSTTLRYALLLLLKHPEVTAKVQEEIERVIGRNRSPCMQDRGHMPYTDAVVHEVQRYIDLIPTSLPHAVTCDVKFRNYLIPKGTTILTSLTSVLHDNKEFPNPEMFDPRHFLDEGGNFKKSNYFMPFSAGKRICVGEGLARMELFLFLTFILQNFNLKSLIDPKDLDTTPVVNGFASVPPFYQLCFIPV
Procedure, shortened: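 P450-Glo CYP2C19 screening system; proluciferin substrate; DMSO compound stocks; 10 min RT preincubation; NADPH regeneration, 1 h at 37C; luciferin detection reagent, 20 min RT; luminescence as RLU.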

[14] = Caspase-3/7 induction in CHO-K1 cells by small molecules, qHTS cell viability counter screen (AID 1346979); conditions: CellTiter-Fluor fluorescence, 17 h; activity change, negative = cytotoxicity: at 92.4 µM (top of the series); also: potency is read from the fitted curve at half-maximal effect; nearly all actives have a fitted effect of over 35% in size
Procedure, shortened: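 Wild-type CHO-K1 cells (1,500/well) treated with compound after 5 h plating; after 16 h at 37C, viability read as CellTiter-Fluor fluorescence following 1 h reagent incubation, in the same wells as the caspase read.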

[15] = molecular target: Cytochrome P450 2C9 (Homo sapiens) (UniProt P11712); test: Cytochrome P450 Family 2 Subfamily C Member 9 (CYP2C9) small molecule antagonists: luciferase reporter qHTS assay (AID 1671198); also: nearly all actives have a fitted effect of over 50% in size; also: potency is read from the fitted curve at half-maximal effect
Chain of UniProt P11712 (P11712 whole entry, looked up): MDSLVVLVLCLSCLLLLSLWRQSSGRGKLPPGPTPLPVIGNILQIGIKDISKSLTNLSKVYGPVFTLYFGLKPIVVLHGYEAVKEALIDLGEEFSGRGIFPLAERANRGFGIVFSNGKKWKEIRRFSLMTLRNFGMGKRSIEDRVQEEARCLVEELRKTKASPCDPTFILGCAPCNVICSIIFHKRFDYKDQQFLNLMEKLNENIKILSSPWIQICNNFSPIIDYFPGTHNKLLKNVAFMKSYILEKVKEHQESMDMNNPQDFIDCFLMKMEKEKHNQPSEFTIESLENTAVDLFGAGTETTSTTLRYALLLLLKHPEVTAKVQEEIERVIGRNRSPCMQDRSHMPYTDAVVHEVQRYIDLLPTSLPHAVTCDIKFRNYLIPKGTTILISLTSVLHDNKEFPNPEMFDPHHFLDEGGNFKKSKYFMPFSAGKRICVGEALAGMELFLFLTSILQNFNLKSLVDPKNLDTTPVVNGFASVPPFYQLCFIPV
Procedure, shortened: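 CYP2C9 activity was measured with a P450-Glo proluciferin substrate. Enzyme–substrate mix was held with compound for 10 min at room temperature, then NADPH regeneration solution was added for 1 h at 37C. Luciferin product was read as luminescence.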
Tags tell the direction and shape of the fitted curve or compound fluorescence and quenching.

Cc1[nH]cnc1C[C@H]1CCc2c(C)c3ccccc3n2C1=O
active: Potency [1] 37.6 µM
inconclusive: Potency [2] 59.6 µM [cytotoxic, single point] | Potency [3] 66.9 µM [cytotoxic, single point] | Potency [4] 53.6 µM [cytotoxic, single point] | Potency [5] 23.7 µM [cytotoxic, full curve]

CCOc1cccc(-n2cc(C(=O)N3CCN(c4cc(C(=O)O)c5ccccc5c4)CC3)nc2-c2ccc(C)cc2)c1
active: Potency [8] 58.3 µM
inconclusive: Potency [1] 58.3 µM [falling, single point] | Potency [2] 65.5 µM [cytotoxic, single point] | Potency [3] 58.3 µM [cytotoxic, single point] | Potency [6] 46.7 µM [rising, partial curve] | Potency [7] 41.7 µM [rising, partial curve] | Potency [9] 65.5 µM [activator]

CCN1C(=O)c2ccccc2C1Nc1ccc(OCCN2CCCCC2)cc1 (stereo not given)
inactive: Potency [1] | Potency [2] | Potency [10]
inconclusive: Potency [3] 5.31 µM [cytotoxic, full curve] | Potency [11] 29.8 µM [cytotoxic, partial curve, poor fit] | Potency [12] 13.8 µM [inhibitor, partial curve] | Potency [13] 0.347 µM [inhibitor, single point]

OC12N=C(c3ccccc3)SC1Cc1cc(Cl)ccc12 (stereo not given)
active: Potency [1] 43.3 µM
inconclusive: Potency [2] 68.6 µM [cytotoxic, single point] | Potency [3] 19.3 µM [rising, partial curve] | activity, negative = inhibition [7] 0.251% | Potency [11] 68.6 µM [cytotoxic, single point] | Potency [14] 68.6 µM [cytotoxic, single point] | Potency [5] 68.6 µM [cytotoxic, single point]

CC[C@H](NC(=O)c1cc(F)ccc1NS(=O)(=O)c1cccc2cccnc12)c1ccccc1
inactive: Potency [3] | Potency [11]
inconclusive: Potency [1] 18.3 µM [falling, partial curve, poor fit] | Potency [2] 64.9 µM [cytotoxic, partial curve, poor fit] | activity, negative = inhibition [7] 0.912% | Potency [5] 36.5 µM [cytotoxic, partial curve] | Potency [12] 84.6 µM [inhibitor, partial curve, poor fit] | Potency [13] 84.6 µM [inhibitor, single point]
active: Potency [14] 46 µM | Potency [9] 0.46 µM

NCCOCCOCCN
active: Potency [2] 15.4 µM | Potency [12] 25.2 µM
inconclusive: Potency [1] 48.6 µM | Potency [3] 21.7 µM [cytotoxic, partial curve]
inactive: Potency [6] | Potency [13] | Potency [15]

Nc1cccc2c(N)cccc12
inconclusive: Potency [1] 30.6 µM [phenotype inactive, partial curve] | Potency [2] 19.3 µM [cytotoxic, full curve] | Potency [3] 2.43 µM [rising, full curve] | activity, negative = inhibition [7] -1.93% | Potency [14] 39.7 µM [cytotoxic]
active: Potency [11] 5.45 µM | Potency [5] 61.1 µM | Potency [12] 2.38 µM

COC(=O)Nc1nc2ccc(C(=O)C3CC3)cc2[nH]1
inactive: Potency [6]
inconclusive: activity change, negative = inhibition [1] -18.8% [at 42.5 µM] | Potency [2] 6.68 µM [rising, full curve] | Potency [3] 1.88 µM [rising, full curve] | activity, negative = inhibition [7] -6.64% [at 35.3 µM] | Potency [14] 1.19 µM [cytotoxic, full curve] | Potency [15] 15.5 µM [inhibitor, full curve, poor fit]

C[C@@H]1[C@H](O)[C@@H](C)/C=C/C=C\C=C\C=C\C=C\C=C\C=C\[C@H](O[C@@H]2O[C@H](C)[C@@H](O)[C@H](N)[C@@H]2O)C[C@@H]2O[C@](O)(C[C@@H](O)C[C@@H](O)[C@H](O)CC[C@@H](O)C[C@@H](O)CC(=O)O[C@H]1C)C[C@H](O)[C@H]2C(=O)O (stereo in doubt)
active: Potency [14] 61.1 µM | Potency [5] 48.6 µM
inconclusive: activity change, negative = inhibition [1] -4.39% | Potency [2] 27.3 µM [cytotoxic, partial curve, poor fit] | Potency [3] 61.1 µM [cytotoxic] | Potency [6] 30.9 µM [rising, partial curve] | Potency [9] 68.6 µM [activator, single point]
